Inconclusive results are not listed. For part of its entries the source gives two or more results. The list is limited to them. An entry can have further records. Results that share an entry differ for a reason that is not stated; some may be repeats, others may stem from another dose, organism or construct than stated. Starred links: 1 amine or outer side, 2 acyl side, 3 side chain; linkers in the order of their positions; H or OH if unused. Positions of bridges follow the written chain, without caps; N, C: chain ends. Non-standard residues stand in square brackets, D forms with d. Residues, ends and D or L forms follow the SMILES beside them. Chains are numbered I, II in the order given. Actinocin(9to1) = Cc1c2oc3c(C)ccc(C(=O)[*:1])c3nc-2c(C(=O)[*:2])c(N)c1=O; aThr = C[C@H](O)[C@H](N)C(=O)O; NMeV = CN[C@H](C(=O)O)C(C)C; Sar = CNCC(=O)O
Test system: CD8F1 mice, subcutaneous mammary adenocarcinoma, T/C%
Assay: NCI In Vivo Anticancer Drug Screen. Data for tumor model Mammary Adenocarcinoma CD8F1 (subcutaneous) in CD8F1
Conditions: higher = larger tumour
Experimental: The antitumor activity of compounds was measured in mice bearing transplantable tumors. Survival or tumor size were measured and the results are expressed as the measurement made in the treated group (T) divided by the measurement made in the vehicle treated control group (C). The tumor model used in this assay is Mammary Adenocarcinoma CD8F1 (subcutaneous) in CD8F1

[1] = endpoint: median tumor weight change, dose: 125.0 mg/kg/injection, schedule: Q01DX001 (ip), vehicle: saline with Tween-80
[2] = endpoint: median tumor weight (est.), dose: 25.0 mg/kg/injection, schedule: Q07DX005 (ip), vehicle: saline
[3] = endpoint: median tumor weight change, dose: 125.0 mg/kg/injection, schedule: Q01DX001 (ip), vehicle: saline

CCN(CC)CC[n+]1ccc2c(C)c3[nH]c4ccc(O)cc4c3c(C)c2c1
T/C (endpoint: median tumor weight change, dose: 15.62 mg/kg/injection, schedule: Q01DX001 (ip), vehicle: suspension in saline): 28 % of control and 73 % of control
T/C (endpoint: median tumor weight change, dose: 30.0 mg/kg/injection, schedule: Q01DX001 (ip), vehicle: suspension in saline): 7 % of control and 71 % of control
T/C (endpoint: median tumor weight change, dose: 31.25 mg/kg/injection, schedule: Q01DX001 (ip), vehicle: suspension in saline): 22 % of control, 41 % of control, 63 % of control
T/C (endpoint: median tumor weight change, dose: 62.5 mg/kg/injection, schedule: Q01DX001 (ip), vehicle: suspension in saline): -11 % of control, 13 % of control, 31 % of control

O=Cc1c(O)c2ccccc2[nH]c1=O
T/C [1]: 59 % of control and 118 % of control

CC1(C)N=C(N)N=C(N)N1c1ccc(F)c(C(F)(F)F)c1
T/C (endpoint: median tumor weight (est.), dose: 12.5 mg/kg/injection, schedule: Q07DX005 (ip), vehicle: saline): 55 % of control and 118 % of control
T/C [2]: 77 % of control and 106 % of control
T/C (endpoint: median tumor weight (est.), dose: 50.0 mg/kg/injection, schedule: Q07DX005 (ip), vehicle: saline): 89 % of control and 116 % of control

O=c1ncccn1[C@@H]1O[C@H](CO)[C@H](O)C1O (some centres undefined)
T/C [3]: 77 % of control and 103 % of control
T/C (endpoint: median tumor weight change, dose: 250.0 mg/kg/injection, schedule: Q01DX001 (ip), vehicle: saline): 72 % of control and 117 % of control
T/C (endpoint: median tumor weight change, dose: 500.0 mg/kg/injection, schedule: Q01DX001 (ip), vehicle: saline): 45 % of control and 120 % of control

N#CC(=C1C=CC(=NO)C=C1)c1ccc(Cl)cc1
T/C (endpoint: mean tumor weight, dose: 25.0 mg/kg/injection, schedule: Q07DX006 (ip), vehicle: saline with Tween-80): 53 % of control and 84 % of control
T/C (endpoint: mean tumor weight, dose: 50.0 mg/kg/injection, schedule: Q07DX006 (ip), vehicle: saline with Tween-80): 46 % of control and 75 % of control

Cc1c2oc3c(C)ccc(C(=O)N[C@@H]4C(=O)N[C@H](C(C)C)C(=O)N5CCC[C@H]5C(=O)N(C)CC(=O)N(C)[C@@H](C(C)C)C(=O)O[C@H]4C)c3nc-2c(C(=O)N[C@@H]2C(=O)N[C@H](C(C)C)C(=O)N3CCC[C@H]3C(=O)N(C)CC(=O)N(C)[C@@H](C(C)C)C(=O)O[C@H]2C)c(N)c1=O (I: [aThr][dV]P[Sar][NMeV] / II: [aThr][dV]P[Sar][NMeV]; ester I:1-I:C, II:1-II:C; linker I:N-II:N via Actinocin(9to1))
T/C (endpoint: median tumor weight change, dose: 1.0 mg/kg/injection, schedule: Q01DX001 (ip), vehicle: saline): -80 % of control and -46 % of control

C/C=C/C=C/c1cc2cc3c(c(O)c2c(=O)[nH]1)C1(CC3)C(O)=c2c(=O)c3c(=O)cc(OC)c(=O)c=3c(=O)c2=C1O (centres undefined)
T/C (endpoint: median tumor weight change, dose: 0.31 mg/kg/injection, schedule: Q01DX001 (ip), vehicle: DMSO): 68 % of control and 112 % of control
T/C (endpoint: median tumor weight change, dose: 0.62 mg/kg/injection, schedule: Q01DX001 (ip), vehicle: DMSO): 53 % of control, 71 % of control, 92 % of control
T/C (endpoint: median tumor weight change, dose: 1.25 mg/kg/injection, schedule: Q01DX001 (ip), vehicle: DMSO): 7 % of control, 34 % of control, 89 % of control

CN(C)C1C(=O)C(C(=O)NP(=O)(NCCCO)N(CCCl)CCCl)=C(O)C2(O)C(=O)C3=C(O)c4c(O)cccc4C(C)(O)C3CC12 (centres undefined)
T/C [1]: 81 % of control and 107 % of control

COC1OC(CO)C(O)C(NC(=O)N(C)N=O)C1O (centres undefined)
T/C (endpoint: median tumor weight change, dose: 62.5 mg/kg/injection, schedule: Q01DX001 (ip), vehicle: saline): 61 % of control and 87 % of control

O=P1(N(CCCl)CCCl)NCCCO1 (centres undefined)
T/C (endpoint: median tumor weight (est.), dose: 25.0 mg/kg/injection, schedule: Q04DX005 (ip), vehicle: saline): 7 % of control and 35 % of control
T/C [2]: 5 % of control and 110 % of control
T/C (endpoint: median tumor weight change, dose: 111.0 mg/kg/injection, schedule: Q01DX001 (ip), vehicle: saline): -26 % of control, -4 % of control, 18 % of control
T/C (endpoint: median tumor weight change, dose: 200.0 mg/kg/injection, schedule: Q01DX001 (ip), vehicle: saline): -38 % of control and 6 % of control
T/C (endpoint: median tumor weight change, dose: 375.0 mg/kg/injection, schedule: Q01DX001 (ip), vehicle: saline): -81 % of control and -47 % of control

CS(C)=O
T/C (endpoint: median tumor weight (est.), dose: 3.0 grams/kg/injection, schedule: Q07DX005 (ip), vehicle: saline): 29 % of control and 112 % of control
T/C (endpoint: median tumor weight (est.), dose: 6.0 grams/kg/injection, schedule: Q07DX005 (ip), vehicle: saline): 62 % of control, 73 % of control, 117 % of control
T/C (endpoint: median tumor weight (est.), dose: 12.0 grams/kg/injection, schedule: Q07DX005 (ip), vehicle: saline): 26 % of control, 55 % of control, 88 % of control

CCOC(=O)C(N)CSC(=O)NC (centres undefined)
T/C [3]: 75 % of control and 101 % of control
T/C (endpoint: median tumor weight change, dose: 1000.0 mg/kg/injection, schedule: Q01DX001 (ip), vehicle: saline): 16 % of control and 58 % of control

Source: PubChem BioAssay AID220 (DTP/NCI, 2004)
